# Reference: the RNAGym collection of RNA variant scans (doi:10.1073/pnas.2313332121)
# Variants at the background level are over-represented here.
# B1: TPR 5TU (parent)
# chain: GGAUCUUCUCGAUCUAACAAAAAAGACAAAUCUGCCACAAAGCUUGAGAGCAUCUUCGGAUGCAGAGGCGGCAGCCUUCGGUGGCGCGAUAGCGCCAACGUUCUCAACUAUGACACGCAAAACGCGUGCUCCGUUGAAUGGAGUUUAUCAUG
# Variants of: B1
# Assay: polymerase ribozyme fitness, log enrichment relative to wild type (log ratio); higher = more active; in vitro selection for triplet polymerase activity
# Outline: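 Mutant libraries for each subunit of a heterodimeric triplet polymerase ribozyme were made by PCR and then transcribed. Each library underwent one round of in vitro selection in triplicate: annealing with a biotinylated primer, the partner subunit and triplets, frozen incubation at −7 °C, gel excision of extended constructs, streptavidin-bead capture and RT-PCR. Input and output libraries were Illumina-sequenced, and only genotypes with ≥10 input reads and ≥1 read per output were kept. Fitness is the logarithm, base 2, of genotype enrichment over wild-type enrichment, computed from inverse-variance-weighted replicate averages.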
row,Variant,polymerase ribozyme fitness (log ratio)
1,A37U U56A C99U G143U,-3.88
2,A37U U56A U77A A98G C103A A142C,≤ -4.2
3,C38A A49C G88C C108G,≤ -4.2
4,C38A A52G C79A A120C G124C G133C,≤ -4.2
5,C38A C43A U55A C87U G117A,≤ -4.2
6,C38A C43G C105G C116U,≤ -4.2
7,C38A C54A C63U G70U C75U C87A,≤ -4.2
8,C38A C72G A73U C87G,≤ -4.2
9,C38A C75U C79G G81C G94A C103A C132G,≤ -4.2
10,C38A C76A G84A A120G G140A A150U,≤ -4.2
11,C38A C85A U144C,-0.839
12,C38A C85U C108G U148C,≤ -4.2
13,C38A C87U A89G,≤ -4.2
14,C38A C93G C123G,-3.67
15,C38A C118U A120C G141A,-0.525
16,C38A G50C G80C G83A A91U G100A,≤ -4.2
17,C38A G50U C57U A64C G71C C95G C103A G128U U130G C149G,≤ -4.2
18,C38A G68A C95U,≤ -4.2
19,C38A G68A G74A C85G A107U U134G G143A,≤ -4.2
20,C38A G68U C87G G88A U104G G141C,≤ -4.2
21,C38A G71A G136U U144G,≤ -4.2

row,Variant,polymerase ribozyme fitness (log ratio)
1,C38A U44A G86A G92A C132U G136U A138G,≤ -4.2
2,C38A U53A C57G C79U G86C U134A,≤ -4.2
3,C38A U55A C79U G83A C132G,≤ -4.2
4,C38A U55G A60G,0.135
5,C38A U56G G59U U78C C95A U101C A110G G136U,≤ -4.2
6,C38A U56G G136C U146C,-3.92
7,C38A U61C U109G U111A U135C,≤ -4.2
8,C38A U77G C96U A97G G141C,≤ -4.2
9,C38A U78G C87U C103G G133U G141A,≤ -4.2
10,C38G A73G C75G C87A U139C G143C,≤ -4.2
11,C38G A120U G140C A142C,≤ -4.2
12,C38G C54G C76G A107U U146G,≤ -4.2
13,C38G C63G C69A C76U C96U U101C G136U,≤ -4.2
14,C38G C63U G65A G67U C85G G88A C105G G117C,≤ -4.2
15,C38G C69A C79A C95U C108U U146G,≤ -4.2
16,C38G G42C G59A C95G C105U,≤ -4.2
17,C38G G48A A64C A89C U145G,≤ -4.2
18,C38G G133C A147C,-2.55
19,C38G U55A C63U C69A A91G A113U C118U G140C,≤ -4.2
20,C38G U55A G58U A60U G86C G133U,≤ -4.2
21,C38G U56A G86U U130A,≤ -4.2

row,Variant,polymerase ribozyme fitness (log ratio)
1,C38G U56A G94A A121G,-1.64
2,C38G U78G C93U C114U A120U,≤ -4.2
3,C38G U82G C96U A110G U111G G140U,≤ -4.2
4,C38G U101G U102G,≤ -4.2
5,C38G U146C,-0.518
6,C38U A39U G88C C123A,≤ -4.2
7,C38U A40C G81A A91G C125G,-3.83
8,C38U A40U C75U G86A C108G G124C C132G,≤ -4.2
9,C38U A41C C99G U134C U139A,≤ -4.2
10,C38U A41C G48A C51A G84C G141C,≤ -4.2
11,C38U A41C G88A A137U,≤ -4.2
12,C38U A47C A64C U78G G84C A97C C108U,≤ -4.2
13,C38U A47C G59C G141A U148G,≤ -4.2
14,C38U A47U C54A G62C G65A C87G C96A C118A A150G,≤ -4.2
15,C38U A49C C85U G92U C103A U111C U144C,≤ -4.2
16,C38U A49C C87A C93A U101C G140U C149A,≤ -4.2
17,C38U A52G C93G G117U,-3.91
18,C38U A52U C87A U101C,≤ -4.2
19,C38U A60C C87U A115C C123A G141U G143U,≤ -4.2
20,C38U A66G U82A C96U C125A U145A,≤ -4.2
21,C38U A66U A91U U109A,≤ -4.2

row,Variant,polymerase ribozyme fitness (log ratio)
1,C38U A73G C87U,0.139
2,C38U A138G G140U A147G U148G U151G,≤ -4.2
3,C38U C54A A60U,-0.76
4,C38U C57G A89U G100C,≤ -4.2
5,C38U C72A C87A A110G G152U,≤ -4.2
6,C38U C72U C95G,-0.675
7,C38U C75A G80U,-4.14
8,C38U C76A G84C U134A U146C,≤ -4.2
9,C38U C85G G88U C103A G126A,≤ -4.2
10,C38U C85U C105U C123G,0.319
11,C38U C87U A115U C125U,-3.34
12,C38U C93U A121G G124A U135G,≤ -4.2
13,C38U C95A,-1.07
14,C38U C95A C108U,-3.39
15,C38U C108G,≤ -4.2
16,C38U C116G U148A,-3.89
17,C38U G46A C79A A98G U102G A107U A121G U130G,≤ -4.2
18,C38U G48A C54A G83A C125G U135A,≤ -4.2
19,C38U G50A A73U G126U,-3.21
20,C38U G50A U77C C87G,≤ -4.2
21,C38U G58A G59C U61A G80C A107G,≤ -4.2
